42 sequences from article PMC7819943, “Rice protein-binding microarrays: a tool to detect cis-acting elements near promoter regions in rice” can be followed below.

Some of the results follow.

This assay concerns the target T1, OsWOX13 (Oryza sativa, UniProt Q5QMM3 1-267).
T1 sequence: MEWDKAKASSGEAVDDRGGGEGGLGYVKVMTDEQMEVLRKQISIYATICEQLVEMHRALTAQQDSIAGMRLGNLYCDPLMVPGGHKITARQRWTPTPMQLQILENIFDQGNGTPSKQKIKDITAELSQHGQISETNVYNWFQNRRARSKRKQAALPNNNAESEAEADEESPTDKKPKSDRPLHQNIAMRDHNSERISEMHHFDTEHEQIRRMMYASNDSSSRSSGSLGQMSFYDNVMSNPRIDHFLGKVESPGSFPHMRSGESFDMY
Kind of assay: protein-binding microarray (RPBM); PBS, 2% BSA, 51.3 ng/ul salmon testes DNA, 50 uM zinc acetate, 200 nM TF, 25 C, 1 h; high values mean tight binding. Conditions: protein: recombinant; tags: N-terminal polyhistidine and DsRed monomer fusion (pET32a); label: CyDye5-dUTP incorporated in the synthesized complementary strand; 3' TTTTT single-stranded linker to array surface; dsDNA, one strand shown. Summed up: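 Polyhistidine-tagged DsRed fusions of transcription factors, joined at the N-terminus, were expressed in E. coli BL21-CodonPlus and isolated on Ni–NTA. They were incubated at 200 nM for 1 h at 25 °C on a custom Agilent array, double-stranded and BSA-blocked, in PBS with 2% BSA, salmon testes DNA and 50 µM zinc acetate. The binding signal is per-feature fluorescence intensity (arbitrary units) read on an Axon 4000B scanner after washing.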
Consider “TAGCACATGATTAATTGAGTAATAATTATTTTAAGTTTGACGGAGTCACCTAGTGCAG”, for which the binding signal is 28200 fluorescence intensity (a.u.).

“GATCATAATCCACTAAATTTCAATCAGAGCCCAAAATAGGCGGAGTCACCTAGTGCAG”: the binding signal is 10800 fluorescence intensity (a.u.).

As for “ATCTATCATCTGAAATATAATTATTTTCCTCATAACCATACGGAGTCACCTAGTGCAG”, the binding signal was 7090 fluorescence intensity (a.u.).

Take “GAGTTACACAGATTGGTATTGGCTGCTATCAGTAGAGGCACGGAGTCACCTAGTGCAG”: the binding signal was 7370 fluorescence intensity (a.u.).

Take “TTAAACAGATTTATAGAGTTACTTCTGAACCATGCAAAAGCGGAGTCACCTAGTGCAG”: the binding signal is 27300 fluorescence intensity (a.u.).

As to “TGTAATTAGGAGTCCGACTTTCGTCTCAAGTTAGTATGCGCGGAGTCACCTAGTGCAG”, the binding signal is 20900 fluorescence intensity (a.u.).

Regarding “TCTAAAATAGACAAAGCATTAAATTTGTACCCAGCATATCCGGAGTCACCTAGTGCAG”, the binding signal was 8920 fluorescence intensity (a.u.).

Consider “GGCTCATCTAATCATCGTTGCATTACAACAAATCTATGTGCGGAGTCACCTAGTGCAG”, for which the binding signal is 5180 fluorescence intensity (a.u.).

Take “AATATAATTTTAAATTATAAAATCATAAAGCTAACAAGTTCGGAGTCACCTAGTGCAG”: the binding signal is 26900 fluorescence intensity (a.u.).

“TTTGGCTAAATTTTGGATGTTAACAATCTTATGTATATAACGGAGTCACCTAGTGCAG”: the binding signal was 3740 fluorescence intensity (a.u.).

Regarding “ACATAATTAATCATGTGCTAATGGTTTTCTTGATCATTTTCGGAGTCACCTAGTGCAG”, the binding signal is 16200 fluorescence intensity (a.u.).

Regarding “ACATTAATTTCTGTTTAAACTCTTATGAATGCTTATATTTCGGAGTCACCTAGTGCAG”, the binding signal is 15000 fluorescence intensity (a.u.).

Turning to “CTCCTTGAAATTTCACCTTAATTTGCTCGACGTGCTATATCGGAGTCACCTAGTGCAG”, the binding signal was 17500 fluorescence intensity (a.u.).

As for “GAGCAATTGAGTTGGATAATTGCTGCGTGCTTTTACTTCACGGAGTCACCTAGTGCAG”, the binding signal is 9920 fluorescence intensity (a.u.).

Turning to “GTCTGTAATCACAAATGAAATCTTTAATCCCGTCAGAACTCGGAGTCACCTAGTGCAG”, the binding signal is 3410 fluorescence intensity (a.u.).

As for “CACTAATTGATCAATTGCACAACAAATTGCTTGAATAACGCGGAGTCACCTAGTGCAG”, the binding signal was 59900 fluorescence intensity (a.u.).

“CTAATATAGCTAATTGTGGTACAAAACTATAAATGATACACGGAGTCACCTAGTGCAG”: the binding signal is 3670 fluorescence intensity (a.u.).

For “GAAGTTTAATTATCATAAGATTGTGATGGTTATGTATGGTCGGAGTCACCTAGTGCAG”, the binding signal was 31700 fluorescence intensity (a.u.).

As for “GGTGTTTCTCTGATTGAGGTCCTGCGCAGATCATCCTCTACGGAGTCACCTAGTGCAG”, the binding signal is 10300 fluorescence intensity (a.u.).

As for “ACTACAATTATATACTACTACAATGTAATTATATAATTAGCGGAGTCACCTAGTGCAG”, the binding signal was 4170 fluorescence intensity (a.u.).

With “GCATGCATACATGTAATTAATTAGCACATTCTCTCCCCTACGGAGTCACCTAGTGCAG”, the binding signal was 12700 fluorescence intensity (a.u.).

Take “CCCTAATTATGGTACGTGTTGATCGTGCCACTTCTTCCTCCGGAGTCACCTAGTGCAG”: the binding signal was 39500 fluorescence intensity (a.u.).

Turning to “ACTATCGTAGGTAGCCAATCAATTTAACATTTCACTCAAGCGGAGTCACCTAGTGCAG”, the binding signal was 3630 fluorescence intensity (a.u.).

As for “CGTGATTAGTCTCACCTTAGTGTAATCTTTTGAATTTGGACGGAGTCACCTAGTGCAG”, the binding signal is 40300 fluorescence intensity (a.u.).

“TTTATAATTAGTGCCCAAACATCCGATGTGATAGGGACTTCGGAGTCACCTAGTGCAG”: the binding signal was 20600 fluorescence intensity (a.u.).

For “AACGTCAATCACTTCCGCGCTAGAAATTAGTCATCAACACCGGAGTCACCTAGTGCAG”, the binding signal was 26300 fluorescence intensity (a.u.).

Take “TTGCCCATCACCGACCTAACTGGACTAGCCCATCAACCAGCGGAGTCACCTAGTGCAG”: the binding signal was 6720 fluorescence intensity (a.u.).

For the sequence “AATAATTACAACAAGAATTGAGGAAGTAGCTTCAATAGCTCGGAGTCACCTAGTGCAG”, the binding signal is 16900 fluorescence intensity (a.u.).

Take “TCTGTAAACTGTCCGGCAATTAGAAATTCCCATCCTTAGCCGGAGTCACCTAGTGCAG”: the binding signal is 3220 fluorescence intensity (a.u.).

For the sequence “TGTAATTTAGTGTAATGAAAATATAGCATGTCAAGATATTCGGAGTCACCTAGTGCAG”, the binding signal was 9040 fluorescence intensity (a.u.).

Regarding “CAAAATAAATTAATCTCATATTAGATATGACATATTTCAGCGGAGTCACCTAGTGCAG”, the binding signal is 16400 fluorescence intensity (a.u.).

For the sequence “CACAATTAAATCATTTTGATTCCAATTTTGTAGAATGAACCGGAGTCACCTAGTGCAG”, the binding signal is 13600 fluorescence intensity (a.u.).

In the case of “ATTATTGAATTGGCTTTTGAACACTTGCAGCAAACACATTCGGAGTCACCTAGTGCAG”, the binding signal was 5730 fluorescence intensity (a.u.).

As to “AATAAAATAATAATTATATAATTTTAGTAAGATAATTGAACGGAGTCACCTAGTGCAG”, the binding signal was 19200 fluorescence intensity (a.u.).

Take “TAAAATTTTATCTCTAATGATATCTTAACCGTTTTATAAGCGGAGTCACCTAGTGCAG”: the binding signal is 5750 fluorescence intensity (a.u.).

As for “TCCCGTGTAAAAGTTGATTGATTATTGTACTATGCTAATGCGGAGTCACCTAGTGCAG”, the binding signal is 35400 fluorescence intensity (a.u.).

For “GGCAAATAGTCAATTGTGGGCTGTTAAATTACTGTCGCGACGGAGTCACCTAGTGCAG”, the binding signal is 5040 fluorescence intensity (a.u.).

Consider “TTTAGATTTTCAAACTTAATTTTGAGATATTTTCAATGGACGGAGTCACCTAGTGCAG”, for which the binding signal was 10300 fluorescence intensity (a.u.).

Turning to “TACTTAATTAATCAAATGCTAATCACATTTCTCGTTTTAACGGAGTCACCTAGTGCAG”, the binding signal is 29400 fluorescence intensity (a.u.).

For the sequence “GTAGCATAATTGTAAATTGTACTTGTTTATGTTCATAATGCGGAGTCACCTAGTGCAG”, the binding signal is 6010 fluorescence intensity (a.u.).

For the sequence “ATACAGAAATAATTTCAATCTAGCCATCTAGGTACATGTTCGGAGTCACCTAGTGCAG”, the binding signal is 11500 fluorescence intensity (a.u.).

In the case of “CATCGATCAATCAGTGAGCAGCGACAGGAGTAGCACGACGCGGAGTCACCTAGTGCAG”, the binding signal is 22600 fluorescence intensity (a.u.).
